This is an account of results in PubChem BioAssay (NCI).

Among the test systems are NCI/ADR-RES ovarian; HCT-15 colon; OVCAR-5 ovarian; T-47D breast; OVCAR-3 ovarian; A498 renal; NCI-H226 lung; SF-268 CNS; HS 578T breast; SF-539 CNS; NCI-H460 lung; CCRF-CEM leukemia; CAKI-1 renal; UACC-62 melanoma; DU-145 prostate; IGROV1 ovarian; 786-0 renal; SW-620 colon; TK-10 renal; HL-60(TB) leukemia; SNB-75 CNS; SN12C renal; SK-OV-3 ovarian; SF-295 CNS; UO-31 renal; UACC-257 melanoma; SK-MEL-2 melanoma; HOP-92 NSCLC; MALME-3M melanoma; OVCAR-4 ovarian.

Experiment in all cases: NCI tumour cell line growth inhibition, 48 h

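Step 1: Grow cells in 96-well plates. Step 2: Expose to compound for 48 hours at 5 concentrations. Step 3: Interpolate endpoints linearly; if unreached, use highest concentration. Here, GI50 denotes the concentration required for 50% inhibition of growth.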 A number of entries come with more than one value. The list is limited to them. There may be further records. For part of these data: The tests behind the records often covered other concentration ranges, which the source does not state; some values may only mark the edge of a range. For part of these data: The values listed for one entry are repeated measurements (runs, samples, wells, individuals or studies). What stands in brackets tells the records apart. Letters count within one entry.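 TGI: concentration producing complete growth inhibition.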 Where a SMILES comes first, the peptide text is derived from it. [ ]: non-standard residue; d: D form. The star is where a group is joined. Dolaproine = CO[C@@H]([C@@H]1CCCN1)[C@@H](C)C(=O)O; Dil = CC[C@H](C)[C@H](NC)[C@@H](CC(=O)O)OC; X2 = C[C@@H](N*)[C@@H](O)c1ccccc1; NMeV = CN[C@H](C(=O)O)C(C)C

For the compound `CC1CCCc2sc3nc(NNC(=O)c4cnccn4)n(-c4ccccc4)c(=O)c3c21` (stereo unspecified), the TGI in the test on NCI/ADR-RES ovarian is > 27.7 µM [sample A, mean of 2 tests] and 2.27 µM [sample B, mean of 2 tests].

As to `COc1cccc2c1C(=O)c1c(O)c3c(c(O)c1C2=O)C[C@@](O)(C(=O)CO)C[C@@H]3OC1CC2C(OCN3CN2COC2C(C)OC(O[C@H]4C[C@](O)(C(=O)CO)Cc5c(O)c6c(c(O)c54)C(=O)c4c(OC)cccc4C6=O)CC23)C(C)O1` (stereo partly specified), the TGI is 25 µM and 633 nM with HCT-15 colon; 740 nM, 348 nM, 71.3 nM in the test on OVCAR-5 ovarian; 123 nM, 25 µM, 2.84 µM in the test with T-47D breast; 826 nM, 25 µM, 6.45 µM in the test on OVCAR-3 ovarian; 241 nM, 12.9 nM, 34.1 nM in the test on A498 renal; 639 nM, 164 nM, 48.7 nM in the test on NCI-H226 lung. Besides, the TGI is 506 nM, 75.2 nM, > 100 µM in the test on SF-268 CNS; 437 nM, 25 µM, > 100 µM with HS 578T breast; 343 nM and 15.4 nM in the test with SF-539 CNS; 67.1 nM, 3.22 µM, 1.05 µM in the test on NCI-H460 lung; 803 nM and 12.7 nM with CCRF-CEM leukemia; 25 µM and 1.31 µM in the test on CAKI-1 renal. Further, the TGI is 170 nM and 12.2 nM in the test with UACC-62 melanoma; 381 nM, 2.92 µM, 13.6 µM in the test with DU-145 prostate; 644 nM, 6.45 µM, 1.2 µM with IGROV1 ovarian; 476 nM and 45.3 nM with 786-0 renal; 3.48 µM and > 100 µM with SW-620 colon; 192 nM and 25 µM with TK-10 renal. In addition, the TGI in the test with HL-60(TB) leukemia was 205 nM and 9.09 nM.

`COc1cc2c(c(OC)c1OC)-c1ccc(SC)c(=O)cc1[C@@H](NCc1ccccc1[N+](=O)[O-])CC2`: the TGI is 7.37 nM and > 100 µM with SNB-75 CNS; 81.4 nM and 27.3 µM in the test on SF-268 CNS; 46 nM and > 100 µM with IGROV1 ovarian; 84.1 nM and 77.4 µM in the test on SN12C renal; 10.5 nM and 16.5 µM in the test with HL-60(TB) leukemia; 41.6 nM and > 100 µM with SK-OV-3 ovarian.

As to `COc1cc(C2C3=C(COC3=O)N(CCO)c3cc4c(cc32)OCO4)cc(OC)c1OC` (stereo unspecified), the TGI was 12.5 µM and 650 nM in the test on SF-295 CNS; 12.5 µM and 1.06 µM in the test with HS 578T breast; 1.04 µM and > 16.8 µM in the test on SK-MEL-2 melanoma; 921 nM and 12.1 µM with HL-60(TB) leukemia. The GI50 is 818 nM and > 16.8 µM with UO-31 renal; 391 nM and 9.35 µM in the test with UACC-257 melanoma.

Take `CC[C@H](C)[C@@H]([C@@H](CC(=O)N1CCC[C@H]1[C@H](OC)[C@@H](C)C(=O)N[C@H](C)[C@@H](O)c1ccccc1)OC)N(C)C(=O)[C@@H](NC(=O)[C@@H](NC)C(C)C)C(C)C` (H-[NMeV]V[Dil][Dolaproine]-X2): the GI50 with HOP-92 NSCLC was 161 nM [sample A, mean of 2 tests] and > 100 µM [sample B, 1 test]; in the test with UACC-257 melanoma, > 50 µM [sample A, mean of 2 tests] and 107 nM [sample B, 1 test]; with MALME-3M melanoma, 199 nM [sample A, mean of 2 tests] and < 10 nM [sample B, mean of 2 tests]; with OVCAR-4 ovarian it was 9.28 nM [sample A, mean of 2 tests] and > 78.1 µM [sample B, mean of 2 tests].
